Results taken from article PMC12136788.
This is one part of the list.

T1: UNK ZnF1-6 (called full-length) (human, UniProt Q9C0B0 30-357)
T1 sequence: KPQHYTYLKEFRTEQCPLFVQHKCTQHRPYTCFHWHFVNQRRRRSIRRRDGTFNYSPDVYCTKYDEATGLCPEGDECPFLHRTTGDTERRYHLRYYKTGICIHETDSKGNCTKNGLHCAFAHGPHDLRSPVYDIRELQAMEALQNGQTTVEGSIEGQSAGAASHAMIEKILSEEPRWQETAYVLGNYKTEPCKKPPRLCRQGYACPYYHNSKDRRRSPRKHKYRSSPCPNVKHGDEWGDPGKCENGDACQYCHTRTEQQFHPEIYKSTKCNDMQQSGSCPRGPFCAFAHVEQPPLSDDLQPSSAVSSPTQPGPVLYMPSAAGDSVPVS

B1: chr12:79451877:79451978:+|3pUTR|ENSG00000067715|msi1|FALSE|unique (ssRNA)
RNA: GGGAGUUCUACAGUCCGACGAUCCCUUCAUUUUUGAUGAGGUGAUUUAAAUUUUGUUUCACUUUGUGUAGUGAAUUCCACAGUAGUUUUCUGAUUGUUGUUAAAAAUGACUUAACAUAUUACACAGAUAUUCAAUAAAAAUGUCAACAGAGGAUUGAGCAUCA
B2: chr15:50499333:50499363:+|3pUTR|ENSG00000138592|msi1_unk|FALSE|overlapping (ssRNA)
RNA: GGGAGUUCUACAGUCCGACGAUCCAGGUACCAUUUAUUUCAAAACAACUUUUUUAGUCUGCUCCAAAGUUAAAAUAAUUAACUAGCUAAGCAUUAUUAUUCGACUGGUCUAAAAACUAUUGUUAUCUUUUUUUUUUCCUUUUCCAACAGAGGAUUGAGCAUCA
B3: chr12:6238009:6238110:+|3pUTR|ENSG00000010278|msi1_unk|FALSE|overlapping (ssRNA)
RNA: GGGAGUUCUACAGUCCGACGAUCAUAAAAGCUGAAGUUACUUUAUGUUUGUCUUUUAAUGCUUCAUUCAAUAUUGACAUUUGUAGUUGAGCGGGGGGUUUGGUUUGCUUUGGUUUAUAUUUUUUCAGUUGUUUGUUUUUGCUUCAACAGAGGAUUGAGCAUCA
B4: chr15:49644301:49644402:+|3pUTR|ENSG00000104047|msi1|FALSE|unique (ssRNA)
RNA: GGGAGUUCUACAGUCCGACGAUCAAUAAUUGAAGCCUACCUGCUAGUGGCCAUCUCUGCUGCCAGGUGAAAAGAGCCUGACUUAGAAUGAAGUCAGCGAAGGAAAGCAGAGUGGAGAGAAAAAGAGAGACUGAGUCCUGAUGACAACAGAGGAUUGAGCAUCA
B5: chr1:68475836:68475940:-|3pUTR|ENSG00000024526|unk|FALSE|unique (ssRNA)
RNA: GGGAGUUCUACAGUCCGACGAUCAUGCCCAGGGCCUAACUUACACUAAUUAAAUCUGAAUUUUGGGGAUGUUGUAUAGGGAUUAGUAUUUUUUUUAAUCUAGGUGAUUCCAAUAUUCAGCCAACUGUGAGAAUCAAUGGCCUACAACAGAGGAUUGAGCAUCA
B6: ENSG00000196510:stop:overlap|stop_codon|ENSG00000196510|stop_codon|NA|stop_codon (ssRNA)
RNA: GGGAGUUCUACAGUCCGACGAUCUCCUUGUAGCUGUCAAUGAGUAUCAGGAGGCAAUGGACCAGUAUAGUAUAGCACUAAGGUAGGCACUAGCCUCCCUUGGGGGAAGGCCACUGAGGAGGGUAGAGGAGGCAGUGAGCUGUGCAACAGAGGAUUGAGCAUCA
B7: chr12:49763637:49763739:+|3pUTR|ENSG00000139644|msi1_unk|FALSE|overlapping (ssRNA)
RNA: GGGAGUUCUACAGUCCGACGAUCAUGUGUAUCAAGGUACAGCAUCGUAGGGUUCCCCUAAACUUGCCCUGUUUUUGUUUUUUUAGUUUGUUAUCCCCUUACUGAGCGGCCUCUACUAGGUGGCUGUGAUUAAAUGUCCCAAGCCAACAGAGGAUUGAGCAUCA
B8: chr21:39174768:39175664:-|three_prime_utr|ENSG00000183527|control|control|control (ssRNA)
RNA: GGGAGUUCUACAGUCCGACGAUCUUGAUGACAACAAAUGAGAUUCAGAGUAACAUUUAUACAUGAUCUUAAACAUUGUUUUGUAGUGUAUAUUACUUGUCCAUUCCUUUAAGGGGAGCAGCCUGCACUCUUUUGUAGAUUACUCAACAGAGGAUUGAGCAUCA
B9: chr7:114979563:114979664:+|CDS|ENSG00000135272|unk|FALSE|unique (ssRNA)
RNA: GGGAGUUCUACAGUCCGACGAUCCCAACCUCAGCGCUUGCCUCAGCUUCAGACUUCAGCCCAGGUGCCAAGUGGUGAGGAAAUAGGCAAGAUAAAGAACGGCCACACAGGUCUGAGCAAUGGAAAUGGAAUUCACCACGGGGCCAACAGAGGAUUGAGCAUCA
B10: chr11:62888716:62888817:+|3pUTR|ENSG00000168003|unk|total|mutant (ssRNA)
RNA: GGGAGUUCUACAGUCCGACGAUCUUUUCUCUUUUUUAAAAACAAACAAACAAACUGUUGCAGAUUAUGAGUGAACCCCCAAACCGGGUGUUUUCUGCCUUCAAAUAAAAGUCACCCCUGCAUGGUGAAGUCUUCCCUCUGCUUCAACAGAGGAUUGAGCAUCA
B11: chr5:14398947:14399058:+|CDS|ENSG00000038382|unk|FALSE|unique (ssRNA)
RNA: GGGAGUUCUACAGUCCGACGAUCCCCAAAAACCUUAAUUCGAAAGGGUCGAGAACGGCAUCUCUUCCUUUUUGAAAUGUCCUUAGUAUUUAGUAAAGAAGUGAAAGAUUCCAGUGGGAGAAGCAAGUACCUUUAUAAAAGCAACAACAGAGGAUUGAGCAUCA
B12: chr22:49888080:49888186:+|3pUTR|ENSG00000100426|unk|FALSE|unique (ssRNA)
RNA: GGGAGUUCUACAGUCCGACGAUCUGGCUUAUUAACAGGGAAGAAGCUUGUUAUAUUCCAGUUGUAAGAAUAGCCUUAGUGUUUAGAUUUUUUUAUGAUAGGGAAGAUGCGGCCAUCACUGGGAUAUUUUCAAAUCCCAAGGACCAACAGAGGAUUGAGCAUCA
B13: chr1:228098150:228098251:+|3pUTR|ENSG00000143761|msi1_unk|total|mutant (ssRNA)
RNA: GGGAGUUCUACAGUCCGACGAUCGCACCGUGCUGUAAAUGUGGCAGACGCAGCCUGCGGCCAGGCUUUUUAUUUAAUGUAAACCGUUUUUGUUUCCAAUGAGGCAGUUUCUGGUACUCCUAUGCAAUAUUACUCAGCUUUUUUCAACAGAGGAUUGAGCAUCA
B14: ENSG00000070961:be:win_6301|3pUTR|ENSG00000070961|bound_else_gene|NA|bound_elsewhere_windowed (ssRNA)
RNA: GGGAGUUCUACAGUCCGACGAUCUGAGUUACUCCUUGUCAUCUUACAAAUAUGUGAUAUGGUAAUUUUCAUAACAGAUGUCAGUUUUGAACCAAGAAUUGGUGAUUUGUUUAUAAGAAAAAAACUGGCUUCAUUUCUGUGAAACAACAGAGGAUUGAGCAUCA
B15: chr14:60975662:60975785:-|CDS|ENSG00000126814|unk|FALSE|unique (ssRNA)
RNA: GGGAGUUCUACAGUCCGACGAUCGAAAGAAAACCCUCUGUGCACGUUGUCAUGAACUUGCCAGCAAAAGCUAUAGAGUUUCUUAGUGCUUUCAAGUGGCUUUUAGAUGGGCAGCCAUGCAGCAGUGAGUUCCUUCCCAUAGUGCAACAGAGGAUUGAGCAUCA
B16: chr8:94832020:94832135:+|CDS|ENSG00000164941|unk|total|mutant (ssRNA)
RNA: GGGAGUUCUACAGUCCGACGAUCGGUACCCGAAGCAGCCCUAAAAUUAAACAAGGAUCUUUAUGUCCAUACGAUGAGAACUCCCGAUUUAUUGGCCAUGGAACCAGGCAUGGUAAAUGGAGAAACUGAGAGUUCUACUGCUGGCAACAGAGGAUUGAGCAUCA
B17: chr4:100395340:100398373:-|three_prime_utr|ENSG00000164035|control|control|control (ssRNA)
RNA: GGGAGUUCUACAGUCCGACGAUCGGGGCUCUCCUGUUCUCUCACAUUUAAAAAUUCCAUUACUCCAUUUACAGGAGCGUUCCUAGGAAAAGGAAUUUUAGGAGGAGAAUUUGUGAGCAGUGAAUCUGACAGCCCAGGAGGUGGCAACAGAGGAUUGAGCAUCA
B18: chr12:103777333:103777434:-|3pUTR|ENSG00000111696|msi1|total|mutant (ssRNA)
RNA: GGGAGUUCUACAGUCCGACGAUCUCCUGAACAUUUACGGGCUAUGCAUUGGGAACUGCAGGGGCACAGUGAUGGGCAAAGAUCCGCUGCUUCCAGAAGGCUGAUUUCGUGGGCUCCACAAUGGUAAAACGCUGCUGUGAGUGGCAACAGAGGAUUGAGCAUCA
B19: chr1:65389253:65389354:+|CDS|ENSG00000116675|unk|total|mutant (ssRNA)
RNA: GGGAGUUCUACAGUCCGACGAUCGUCCGAUGCAUGUGAUGUACCAGAAAAAUAUCCUCAGCUAUUUCAGGUGACACUGGAUGCCGAACUACAGCCCCAUGACAAAGUAACCGACUUAACUCCACCAUGGGAACAUUACUGCACCAACAGAGGAUUGAGCAUCA
B20: chr2:39051162:39051270:-|CDS|ENSG00000115904|unk|FALSE|unique (ssRNA)
RNA: GGGAGUUCUACAGUCCGACGAUCAAAUAUAUUUAGUCGCAUAGUAGAUAUACAUGAACUUAGUGUAAAGUUACUGGGCCAUAUAGAAGAUACAGUAGAAAUGACAGAUGAAGGCAGUCCCCAUCCACUAGUAGGAAGCUGCUUCAACAGAGGAUUGAGCAUCA
B21: chr17:29166540:29166641:-|CDS|ENSG00000196535|unk|total|mutant (ssRNA)
RNA: GGGAGUUCUACAGUCCGACGAUCCUGGACUCGGGCCACCUAAGUACAGCCAGCUCCAGCGAUGACCUCAAGGGUGAGGAGGGCCGCUUCCGUGGCUCGGUGCUGCAGCGGGCAGCCAAGUUCGGCUCACUGGCCAAGCAGAACCAACAGAGGAUUGAGCAUCA
B22: chr2:181535040:181538244:-|three_prime_utr|ENSG00000188452|control|control|control (ssRNA)
RNA: GGGAGUUCUACAGUCCGACGAUCAGCAUGGAAGAAAUGAUUCCAAAGUAACAUGUAAUUGUUUCUAAAAGAAAUGUACAAACUAGAAUUUUAAUAUAAAGAAAUGUGGCCAUGCUUUAAACCUGUGGUCCCCACCCUUUUUGGCAACAGAGGAUUGAGCAUCA

biological target: T1, UNK ZnF1-6 (called full-length); assay: nsRBNS (natural sequence RNA bind-n-seq); RBNS binding buffer (assumed for nsRBNS): 25 mM Tris pH 7.5, 150 mM KCl, 3 mM MgCl2, 0.01% Triton X-100, 500 ug/ml BSA, 20 U/ml SUPERase-In, 4 C; UNK is unkempt and MSI1 is Musashi-1; names of the RNAs are library labels; protein concentration not given here; high values mean tight binding

Binder | binding signal [enrichment R]
B1 | 0.827
B2 | 9.13
B3 | 2.07
B4 | 0.621
B5 | 11.6
B6 | 0.847
B7 | 1.99
B8 | 0.615
B9 | 0.712
B10 | 0.587
B11 | 2.82
B12 | 11.3
B13 | 0.896
B14 | 0.375
B15 | 0.713
B16 | 1.08
B17 | 0.781
B18 | 0.856
B19 | 0.674
B20 | 3.02
B21 | 0.832
B22 | 5.14
